The record followed here is patent publication US12043670B2, “Anti-BCMA antibody-drug conjugates and methods of use” (Eisai R&D Management Co., Ltd., priority 2020, dated 2024).

The chains are these.
T1: extracellular domain of human BCMA (Homo sapiens, UniProt Q02223)
T1 construct: tips loaded with the extracellular domain of human or rhesus monkey BCMA (amino linked) were generated
T1 sequence (Q02223 1-54 limits assumed): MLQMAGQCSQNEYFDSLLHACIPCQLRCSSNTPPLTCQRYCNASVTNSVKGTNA

B1: AB200_Fab + D99T: AB200 Fab with D99T mutation at heavy chain Kabat position 99, non-mutated AB200 light chain (antibody)
VH: QVQLVQSGAEVKKPGSSVKVSCKASGGTFSNYWMHWVRQAPGQGLEWMGATYRGHSDTYYNQKFKGRVTITADKSTSTAYMELSSLRSEDTAVYYCARGAIYTGYDVLDNWGQGTLVTVSS
light: DIQMTQSPSSLSASVGDRVTITCSASQDISNYLNWYQQKPGKAPKLLIYYTSNLHSGVPSRFSGSGSGTDFTLTISSLQPEDFATYYCQQYRKLPWTFGQGTKLEIKRTVAAPSVFIFPPSDEQLKSGTASVVCLLNNFYPREAKVQWKVDNALQSGNSQESVTEQDSKDSTYSLSSTLTLSKADYEKHKVYACEVTHQGLSSPVTKSFNRGEC
B2: AB200_Fab + D99H (antibody)
heavy: QVQLVQSGAEVKKPGSSVKVSCKASGGTFSNYWMHWVRQAPGQGLEWMGATYRGHSDTYYNQKFKGRVTITADKSTSTAYMELSSLRSEDTAVYYCARGAIYHGYDVLDNWGQGTLVTVSSASTKGPSVFPLAPSSKSTSGGTAALGCLVKDYFPEPVTVSWNSGALTSGVHTFPAVLQSSGLYSLSSVVTVPSSSLGTQTYICNVNHKPSNTKVDKKVEPKSC
light: B1 light
B3: AB200_Fab + D99N: AB200 Fab with asparagine at heavy chain Kabat position 99, non-mutated AB200 light chain (antibody)
VH: B1 VH with T103N
light: B1 light
B4: AB200_Fab + D99Q: AB200 Fab with D99Q mutation at heavy chain Kabat position 99, non-mutated AB200 light chain (antibody)
VH: B1 VH with T103Q
light: B1 light
B5: AB200_Fab + D99S: AB200 Fab with D99S mutation at heavy chain Kabat position 99, non-mutated AB200 light chain (antibody)
VH: B1 VH with T103S
light: B1 light
B6: AB200_Fab + D99E: AB200 Fab with D99E mutation at heavy chain Kabat position 99, non-mutated AB200 light chain (antibody)
VH: B1 VH with T103E
light: B1 light
B7: AB200-(2Vk44)_R2-VH-v7 (antibody)
heavy: B2 heavy with F29Y, M34I, G54S, D57T, N61A, G66S, Y105F, L108I
light: B1 light with S24R, D28S, N31S, L33I, Y50A, H55Q, S56I, K93R, T97S
B8: AB200-(2Vk44)_R2-VH-v68 (antibody)
heavy: B2 heavy with M34I, G54I, Y59N, N61A, G66S, K74E, Y105F, L108I
light: B1 light with S24R, D28S, N31S, L33I, Y50A, H55Q, S56I, K93R, T97S
B9: AB200-(2Vk44)_R2-VH-v61 (antibody)
heavy: B2 heavy with M34I, A50G, G54I, F64Y, G66S, L108I, D109E
light: B1 light with S24R, D28S, N31S, L33I, Y50A, H55Q, S56I, K93R, T97S
B10: AB200-(2Vk44)_R2-VH-v64 (antibody)
heavy: B2 heavy with M34I, G54I, D57T, N61A, G66S, Y105F, L108I
light: B1 light with S24R, D28S, N31S, L33I, Y50A, H55Q, S56I, K93R, T97S
B11: AB200-(2Vk44)_R2-VH-v70 (antibody)
heavy: B2 heavy with M34I, G54I, Y59N, F64Y, G66S, I101V, L108I
light: B1 light with S24R, D28S, N31S, L33I, Y50A, H55Q, S56I, K93R, T97S
B12: AB214: humanized anti-BCMA antibody, heavy chain SEQ ID NO: 96, light chain SEQ ID NO: 97 (antibody)
heavy: QVQLVQSGAEVKKPGSSVKVSCKASGGTFSNYWIHWVRQAPGQGLEWMGATYRSQSDTYYNQKYKSRVTITADKSTSTAYMELSSLRSEDTAVYYCARGAVYHGYDVIDNWGQGTLVTVSS[omitted - human IgG1 constant region]
light: B1 light with S24R, D28S, N31S, Y50A, H55Q, S56I, K93R, L94I
B13: AB217: humanized anti-BCMA antibody, heavy chain SEQ ID NO: 102, light chain SEQ ID NO: 103 (antibody)
heavy: B12 heavy with S30T, Q55H, N61A
light: B1 light with S24R, D28S, N31S, L33I, Y50A, H55Q, K93R, L94I
B14: AB212: humanized anti-BCMA antibody, heavy chain SEQ ID NO: 92, light chain SEQ ID NO: 93 (antibody)
heavy: B12 heavy with A50G, Q55H, Y59N, Y64F, V101I, D109E
light: B1 light with S24R, D28S, N31S, Y50A, H55Q, S56I, Y91F, K93R
B15: AB218: humanized anti-BCMA antibody, heavy chain SEQ ID NO: 104, light chain SEQ ID NO: 105 (antibody)
heavy: B12 heavy with D57T, Y64F
light: B1 light with S24R, D28S, N31S, Y50A, H55Q, S56I, Y91F, K93R

Where a chain is given by its changes, count along the chain named. Numbers in names are those of the source.

T2 sequence (F7FFA0 1-53): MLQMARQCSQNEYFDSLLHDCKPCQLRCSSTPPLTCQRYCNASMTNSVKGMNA

The first data set addresses T1, extracellular domain of human BCMA. The data set can be described thus: Octet binding assay, human BCMA. The note with it: Fab format, 200 nM. The protocol: (§1) The binding affinity of each mutated clone for the extracellular domain of human and monkey BCMA was determined by Octet assay (ForteBio). Amine Reactive 2nd Generation (AR2G) tips loaded with the extracellular domain of human or rhesus monkey BCMA (amino linked) were generated and incubated in a 200 nM solution of each antibody clone (all clones in Fab format). Ligand association and dissociation were determined over 600 seconds (300 seconds for each stage).
For B1, the Koff stood at 0.0003 s⁻¹ and the Kon turned out to be 80000 M⁻¹ s⁻¹.

On to B2, for which the Koff was 0.00037 s⁻¹ and the Kon is 180000 M⁻¹ s⁻¹.

B3 yielded a Koff of 0.00023 s⁻¹ and a Kon of 190000 M⁻¹ s⁻¹.

As for B4, the Koff was 0.00053 s⁻¹ and the Kon is 170000 M⁻¹ s⁻¹.

In the case of B5, the Koff amounted to 0.00044 s⁻¹ and the Kon came to 110000 M⁻¹ s⁻¹.

B6: the Koff turned out to be 0.00091 s⁻¹ and the Kon worked out at 150000 M⁻¹ s⁻¹.

A further data set addresses T2, extracellular domain of rhesus monkey BCMA (Macaca mulatta, UniProt F7FFA0).
T2 construct: tips loaded with the extracellular domain of human or rhesus monkey BCMA (amino linked) were generated
The data set can be described thus: Octet binding assay, rhesus monkey BCMA. The note with it: Fab format, 200 nM. The protocol: as §1
(In general: In BLI a coated tip is dipped into the sample, and binding shifts an interference pattern.)
Take B1: the Koff worked out at 0.00099 s⁻¹ and the Kon came to 90000 M⁻¹ s⁻¹.

In turn, B2 had a Koff of 0.00105 s⁻¹ and a Kon of 180000 M⁻¹ s⁻¹.

Regarding B3, the Koff came out at 0.00066 s⁻¹ and the Kon amounted to 200000 M⁻¹ s⁻¹.

B4 had a Koff of 0.0014 s⁻¹ and a Kon of 180000 M⁻¹ s⁻¹.

As to B5, the Koff was 0.00114 s⁻¹ and the Kon amounted to 120000 M⁻¹ s⁻¹.

Molecule B6 registered a Koff of 0.00219 s⁻¹ and a Kon of 160000 M⁻¹ s⁻¹.

Tested on in the next data set: not listed separately
Briefly: ThermoFluor thermostability (Tm). The note with it: Fab fragment; heavy chain clone paired with light chain AB200-(2Vk44). Format: physicochemical. A general note: Differential scanning fluorimetry follows unfolding on heating by fluorescence.
For the molecule B7, the Tm is 77.428 °C.

Turning to B8, the Tm turned out to be 75.716 °C.

As to B9, the Tm came to 76.850 °C.

With B10, the Tm worked out at 77.787 °C.

Consider B11, for which the Tm came to 76.335 °C.

The same data set, now with this note: thermostability of selected clones.
Consider B12, for which the Tm was found to be 81.9 °C.

As to B13, the Tm came to 78.0 °C.

B14: the Tm was 81.2 °C.

As to B15, the Tm is 86.0 °C.

The next data set has as its system OPM2 multiple myeloma xenograft. The data set can be described thus: OPM2 xenograft model, unconjugated anti-BCMA antibodies (Studies 1 and 2). The class given is in vivo, mouse. The note with it: OPM2 Study 1, unconjugated antibody, 20 mg/kg, eleven days post-dose, not statistically significant. The protocol:
Methods: Anti-tumor activity was assessed in an OPM2 multiple myeloma xenograft model for a subset of exemplary anti-BCMA antibodies in their naked (unconjugated) form. Four antibodies (AB212, AB214, AB217, and AB218) and a reference antibody (AB200) were tested, split between two studies. OPM2 cells were cultured and expanded for inoculation according to ATCC recommendations. Cells were pelleted and resuspended in a solution of serum-free RPMI-1640 medium (50% v/v) and Matrigel (50% v/v) at a density of 5.0×10^7 cells/mL. Female CB17-Scid mice were inoculated subcutaneously with 100 μL of cell suspension on their right flanks and monitored for tumor growth. When the mean tumor volume reached ˜150 mm^3, mice were randomized into treatment groups and given a single intravenous dose (via tail vein) of 2.0 mg/mL dosing solution at 10 mL/kg for a total dose of 20 mg/kg (day of dosing is denoted by arrows in FIG. 9 and FIG. 10). Mice were weighed and their tumors were measured three times/week to monitor for any changes. Animals with tumors exceeding 2000 mm^3 or 20 mm in any dimension were taken off study and appropriately euthanized according to IACUC protocol. Upon euthanasia, tumor samples and serum were collected and banked for subsequent analyses.
B12: the “tumor growth inhibition (TGI)” value is listed as about 33%.

The same data set, now with this note: OPM2 Study 1, unconjugated antibody, single intravenous dose 20 mg/kg, day 28.
In the case of B12, the “Tumor growth inhibition (%, day 28)” value is given as 33.11%.

Still in this data set, the particulars now being: OPM2 Study 2, unconjugated antibody, 20 mg/kg, not statistically significant.
Regarding B13, the “effect on tumor growth” value is on record as “modest effect on tumor growth”.

Take B14: the “effect on tumor growth” value is reported as “modest effect on tumor growth”.

For B15, the “effect on tumor growth” value was “modest effect on tumor growth”.

Still in this data set, the particulars now being: OPM2 Study 2, unconjugated antibody, single intravenous dose 20 mg/kg, day 28.
B13: the “Tumor growth inhibition (%, day 28)” value stood at 16.14%.

Consider B14, for which the “Tumor growth inhibition (%, day 28)” value is −14.50%.

Take B15: the “Tumor growth inhibition (%, day 28)” value turned out to be 4.93%.
